Substitutions are numbered along the chain they refer to. Names may count otherwise. ± gives the standard deviation of the averaged measurements. Laboratory Escherichia coli strains with one amino-acid change in an essential protein, pooled on minimal glucose agar with carbenicillin or gentamicin at twice the control MIC (plus kanamycin and chloramphenicol for the plasmids), 48 h. Fold change of barcode share against drug-free plates; higher = less susceptible. Active = above 20 in both replicates (the paper's putatively resistant). '<' = one read or none on drug, '>' = one read or none on a drug-free plate. Shares are relative, so most strains fall below 1 when a few take over. Listed are strains with at least 15 reads on both drug-free plates, and hits; most hits rest on fewer reference reads. Replicate rank correlation about 0.5. Edits are read from barcodes.
B1: ftsY I457P (protein)
chain: MAKEKKRGFFSWLGFGQKEQTPEKETEVQNEQPVVEEIVQAQEPVKASEQAVEEQPQAHTEAEAETFAADVVEVTEQVAESEKAQPEAEVVAQPEPVVEETPEPVAIEREELPLPEDVNAEAVSPEEWQAEAETVEIVEAAEEEAAKEEITDEELETALAAEAAEEAVMVVPPAEEEQPVEEIAQEQEKPTKEGFFARLKRSLLKTKENLGSGFISLFRGKKIDDDLFEELEEQLLIADVGVETTRKIITNLTEGASRKQLRDAEALYGLLKEEMGEILAKVDEPLNVEGKAPFVILMVGVNGVGKTTTIGKLARQFEQQGKSVMLAAGDTFRAAAVEQLQVWGQRNNIPVIAQHTGADSASVIFDAIQAAKARNIDVLIADTAGRLQNKSHLMEELKKIVRVMKKLDVEAPHEVMLTIDASTGQNAVSQAKLFHEAVGLTGITLTKLDGTAKGGVPFSVADQFGIPIRYIGVGERIEDLRPFKADDFIEALFARED
B2: ftsY M404D (protein)
chain: B1 chain with M404D, P457I
B3: ftsY M404P (protein)
chain: B1 chain with M404P, P457I
B4: ftsY M404A (protein)
chain: B1 chain with M404A, P457I
B5: ftsY M404Q (protein)
chain: B1 chain with M404Q, P457I

Target: Escherichia coli (laboratory strain)
Test: barcode share on antibiotic plates over drug-free plates; higher = less susceptible
Description: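 A pool of E. coli strains, each edited to carry one amino-acid change in an essential protein, was grown for 48 h on minimal glucose agar with or without antibiotic; strain barcodes were sequenced; mean of two replicates.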

[1] = antibiotic: carbenicillin, 2× MIC (3.1 µg/mL)
[2] = antibiotic: gentamicin, 2× MIC (MIC 0.45 µg/mL)

| Protein | fold change of barcode share [1] | fold change of barcode share [2] |
| --- | --- | --- |
| B1 | 0.329 ± 0.075 | 0.00539 ± 0.0041 |
| B2 | 0.391 ± 0.13 | 0.0892 ± 0.029 |
| B3 | 0.135 ± 0.043 | < 0.00865 |
| B4 | 0.25 ± 0.1 | 0.0095 ± 0.0052 |
| B5 | 0.598 ± 0.43 | < 0.0145 |
